Data set [1] deals with the molecule itself. The data set is described as follows: ThT fluorescence + negative-stain TEM + X-ray fibre diffraction; self-assembly into fibers; 10 μM protein in PBS pH 7.4, 1 M urea, 1 mM EDTA, 5% glycerol, 1 mM DTT, 25 °C or room temperature.
Data set [2] deals with the molecule itself. As to the kind of experiment: ThT fluorescence + negative-stain TEM; self-assembly into fibers; 10 μM protein in 10 mM Hepes pH 7.6, 100 mM KCl, 1 M urea, 0.1 mM CaCl2, 1 mM MgCl2, 5% glycerol, 1 mM DTT, 25 °C, TEM after 7 days.

B1: full-length Orb2A (natural protein, Drosophila)
chain: [about 80 residues cut from this listing]PYNGSQAGCSSGGISPIPPQMGVSPKYRRSISFPIKGNSPTAIYGNMHMDGMGSGHMNIPTLSIGNGGGGGSTGMVSAGATGGGDAPYLGNSYGNMMTSNGQMHHGGGLDNSLCDYMRNMSLGGNGGGDGSNSMSLMQDRMRVMGGPKHLSEADAMAIAASGNDPSVYLNALKMGSPSRLSPHSPHSPIQGGNGGNVGDGTARFSRKVFVGGLPPDIDEDEITTSFRRFGPLVVDWPHKAESKSYFPPKGYAFLLFQDESSVQQLIDSCITDEDKLYLCVSSPTIKDKAVQIRPWRLADADYVLDATMSLDPRKTVFVGGVPRPLKAFELAMIMDRLYGGVCYAGIDTDPELKYPKGAGRVAFSNQQSYIAAISARFVQLQHGDIDKRVEVKPYVLDDQMCDECEGQRCGGKFAPFFCANVTCLQYYCEHCWAVIHSRPGREYHKPLVKEGADRPRAVPFRWC
notes: Plasmid (pET-28) was a gift from Dr Ansgar Siemer (USC); also called Orb2A-FL; source: E. coli Bl21-Gold(DE3), purified under denaturing conditions (HisTrap-HP, 8 M urea)
B1: the binding result in data set [1] is recorded as “binds”.

B2: Orb2A prion-like domain ([…]) F8Y (domain or fragment)
chain: not shown
notes: Made with the Quikchange II site-directed mutagenesis kit; also called F8Y variant; F8Y PLD; source: E. coli Bl21-Gold(DE3), purified under denaturing conditions (HisTrap-HP, 8 M urea)
For B2, the binding result in data set [2] is listed as “binds”.

B3: Orb2A prion-like domain ([…]) F5Y (domain or fragment)
chain: not shown
notes: Made with the Quikchange II site-directed mutagenesis kit; also called F5Y variant; F5Y PLD; source: E. coli Bl21-Gold(DE3), purified under denaturing conditions (HisTrap-HP, 8 M urea)
With B3, the binding result in data set [2] was “binds”.

B4: Orb2A prion-like domain ([…]) (domain or fragment)
chain: not shown
notes: Made by overlap-extension PCR from the Orb2A-FL plasmid; also called Orb2A-PLD; WT Orb2A-PLD; source: E. coli Bl21-Gold(DE3), purified under denaturing conditions (HisTrap-HP, 8 M urea)
For B4, the binding result in data set [1] was “binds”.

These data come from publication PMC9556795, “Micro-electron diffraction structure of the aggregation-driving N terminus of Drosophila neuronal protein Orb2A reveals amyloid-like β-sheets” (The Journal of Biological Chemistry, 2022).
